The other results are listed elsewhere or left out.
What was measured:
[1] = tested on: HSkMC (human skeletal muscle cells); assay: cytotoxicity call (relative viability < 0.9); conditions: 10 µM
[2] = tested on: HepG2; assay: cytotoxicity call (relative viability < 0.9); conditions: 10 µM
[3] = tested on: S. aureus RN4220; assay: growth inhibition call (relative growth <= 0.2); conditions: 50 µM

CC(C)(C)OC(=O)N1CC(O)C1
inactive: cytotoxicity call [1] | cytotoxicity call [2] | growth inhibition call [3]

NCCCCN
inactive: cytotoxicity call [1] | cytotoxicity call [2] | growth inhibition call [3]

C[C@@H]1CN([C@@H](C)CO)S(=O)(=O)c2ccc(C#Cc3ccc(F)cc3)cc2O[C@@H]1CN(C)S(=O)(=O)c1cn(C)cn1
inactive: cytotoxicity call [1] | cytotoxicity call [2] | growth inhibition call [3]

Source: the antibiotic and cytotoxicity screens of Wong et al. (2023)
